For assay [1], the target named is T1, myc epitope-tagged Fn14 extracellular domain deletion (Fn14-ΔEC) (human) (UniProt Q9NP84).
T1 sequence: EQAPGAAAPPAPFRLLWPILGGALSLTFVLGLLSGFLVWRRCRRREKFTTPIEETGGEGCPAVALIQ
The assay is described as follows: far-Western, overlay or dot blot; ligand blot: lysates of transfected HEK293 cells run on SDS-PAGE under non-reducing conditions, PVDF membrane incubated with 100 ng/ml Fc-TWEAK, detected with HRP anti-human IgG/Fc; only the binder purified.

Protein sequences, listed by entry. Tags and fused reporters are not part of them. Residues count along the entry.
UniProt O43508, residues 94-249: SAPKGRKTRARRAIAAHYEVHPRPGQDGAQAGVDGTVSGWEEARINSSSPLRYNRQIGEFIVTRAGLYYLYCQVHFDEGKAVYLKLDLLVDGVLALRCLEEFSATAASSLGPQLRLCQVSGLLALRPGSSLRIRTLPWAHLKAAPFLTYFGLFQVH

The target of assay [2] is T2, myc epitope-tagged full-length, wild-type human Fn14 (Fn14-FL) (human) (UniProt Q9NP84).
T2 sequence: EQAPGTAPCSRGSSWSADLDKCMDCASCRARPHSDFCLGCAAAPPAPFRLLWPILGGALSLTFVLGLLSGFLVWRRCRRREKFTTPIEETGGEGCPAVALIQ
The description is as above.

For assay [3], the target named is myc-tagged Fn14 with C122S substitution (human) (UniProt Q9NP84). Put plainly: SDS-PAGE under non-reducing conditions with Western blot; HNTG lysates of transfected HEK293 cells; no DTT in loading buffer, sample not heated; anti-myc blot; shows disulfide-linked dimers formed during lysis. For orientation: Immunoblotting shows a protein as a band on a membrane.
The target in assay [4] is T2, myc epitope-tagged full-length, wild-type human Fn14 (Fn14-FL) (human). Put plainly: condition: only lysis buffer supplemented with 10 mM iodoacetamide; SDS-PAGE under non-reducing conditions with Western blot; as a4 but cell lysis buffer supplemented with 10 mM iodoacetamide; anti-myc blot.
Assay [5] concerns the target T1, myc epitope-tagged Fn14 extracellular domain deletion (Fn14-ΔEC) (human). The assay is described as follows: co-IP; HNTG lysates of HEK293/NF-κB-luc/Fn14-HA cells transfected with Fn14-myc plasmids; immobilized anti-myc antibody (ProFound c-Myc Tag IP/Co-IP kit), anti-HA Western blot.
Assay [6] has as its target T2, myc epitope-tagged full-length, wild-type human Fn14 (Fn14-FL) (human). The description is as above.

No constants are given. Whether binding was seen depends on the method and setting. For part of these data: Binding seen in cells or lysates may run through a third protein. Some binding calls cover weakened binding; strength is not graded here. For part of these data: Tags and fused reporters may be left off the sequences shown.

As to “recombinant human Fc-TWEAK fusion protein (from UniProt O43508 94-249) (Fc fusion)”, the binding entry is on record as “no binding (tested: 100 ng/ml)” in assay [1] and “binds” in assay [2]. In the case of “myc-tagged Fn14 with C122S substitution (from UniProt Q9NP84 28-129) (receptor)”, the binding entry in assay [3] was “no binding”. Turning to “myc epitope-tagged full-length, wild-type human Fn14 (Fn14-FL) (from UniProt Q9NP84 28-129) (receptor)”, in assay [4], the binding result is reported as “no binding”. Turning to “HA epitope-tagged Fn14-FL (from UniProt Q9NP84 28-129) (receptor)”, the binding result in assay [5] and in assay [6] was “binds” throughout.
